Test results published in PubChem BioAssay AID1460 (National Center for Advancing Translational Sciences (NCATS), 2008).
In all, about 270,000 compounds went through this assay and about 5,800 (2.1%) were called active. The shares of active, inactive and inconclusive entries below differ from those in the screen. Calls come from the whole dose curve; as a rule, active = well fitted inhibition curve with a large enough effect; inconclusive = small, poorly fitted or top-dose-only effect; inactive = flat fitted curve, though single readings scatter. Potencies beside an inconclusive call are fits to weak or partial responses and may not hold up.

molecular target: Microtubule-associated protein tau (Homo sapiens) (UniProt P10636); assay: qHTS for Inhibitors of Tau Fibril Formation, Thioflavin T Binding; conditions: recombinant tau K18 P301L (four-repeat tau fragment), heparin-induced fibrillization, ThT fluorescence; series mostly up to 57.4 µM; activity, negative = inhibition: at the top concentration; note: nearly all actives have a fitted effect of over 55% in size
Chain of UniProt P10636 (P10636 whole entry, looked up, the tested form may be a part): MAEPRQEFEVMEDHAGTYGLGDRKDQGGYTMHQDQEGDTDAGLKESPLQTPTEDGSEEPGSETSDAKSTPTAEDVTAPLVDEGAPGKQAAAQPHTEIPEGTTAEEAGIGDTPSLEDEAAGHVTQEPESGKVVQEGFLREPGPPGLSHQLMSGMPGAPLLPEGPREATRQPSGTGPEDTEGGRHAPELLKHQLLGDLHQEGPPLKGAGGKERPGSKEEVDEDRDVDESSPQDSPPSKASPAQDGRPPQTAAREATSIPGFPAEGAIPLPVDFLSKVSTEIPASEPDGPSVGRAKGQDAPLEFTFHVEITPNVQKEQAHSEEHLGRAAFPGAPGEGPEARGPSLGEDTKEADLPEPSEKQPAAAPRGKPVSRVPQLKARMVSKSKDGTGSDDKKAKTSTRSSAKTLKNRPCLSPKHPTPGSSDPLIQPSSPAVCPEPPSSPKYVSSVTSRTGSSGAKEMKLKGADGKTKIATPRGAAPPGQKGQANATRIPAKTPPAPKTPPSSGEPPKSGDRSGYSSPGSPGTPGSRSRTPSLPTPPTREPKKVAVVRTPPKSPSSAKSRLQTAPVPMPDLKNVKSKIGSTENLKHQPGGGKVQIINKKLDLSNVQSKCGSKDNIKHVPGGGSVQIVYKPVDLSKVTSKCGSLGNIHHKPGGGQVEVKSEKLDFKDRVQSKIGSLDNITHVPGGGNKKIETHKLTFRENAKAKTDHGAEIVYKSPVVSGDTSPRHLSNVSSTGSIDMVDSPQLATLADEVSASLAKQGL
In short: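 In this qHTS, human K18 P301L tau is incubated with compound and heparin for 6 hr at 37 C, and Thioflavin T fluorescence then reports fibril load.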
% is set by controls: 0 for no effect and ±100 for the full control effect; potency is the fitted concentration of half-maximal effect; tags give direction and shape of the fitted curve.

Row | SMILES | Potency | activity, negative = inhibition
1 | COC(=O)c1ccc(N2OC3(C)C=CC2CC3)cc1 (stereo not given) | inconclusive: 31.6 µM [inhibitor, single point] | –
2 | N=C1c2c(cc(=O)n3c2[nH]c2ccccc23)CN1CCN1CCOCC1 | inconclusive: 15.8 µM [inhibitor, partial curve] | –
3 | CCc1cc2cc(C)cc(C)c2nc1SCC(=O)N1CCN(C(=O)c2ccco2)CC1 | inconclusive: 17.8 µM [inhibitor, partial curve, poor fit] | –
4 | O=Cc1cccn1-c1sc2c(c1C(=O)O)CCCC2 | – | inactive: -5.96%
5 | CCN(CC)S(=O)(=O)c1cccc(C(=O)Nc2nc3cc4c(cc3s2)OCCO4)c1 | inconclusive: 3.55 µM [inhibitor, single point] | –
6 | COc1cc(CNc2cccc(F)c2)cc(Br)c1O | inconclusive: 10 µM [inhibitor, partial curve] | –
7 | Cc1oc2cc([N+](=O)[O-])c(O)c([N+](=O)[O-])c2c1C(=O)c1ccc(Br)cc1 | active: 10 µM | –
8 | Cc1cc(OC(=O)c2ccccc2Cl)cc(=O)n1C | inconclusive: 11.2 µM [inhibitor, partial curve] | –
9 | O=C(N/N=C/c1ccc(OCc2ccccc2)cc1)c1ccco1 | inconclusive: 0.224 µM [inhibitor, full curve] | –
10 | Cc1ccc(C2/C(=C(/O)c3cnn(-c4ccccc4)c3C)C(=O)C(=O)N2CCN2CCOCC2)o1 (stereo not given) | inconclusive: 28.2 µM [inhibitor, partial curve] | –
11 | CCc1ccc(-n2nc(C)c3c(C)cc(=O)n(CC(=O)Nc4ccccc4C(=O)OC)c32)cc1 | – | inactive: -9.29%
12 | CCCc1nc2c(nnn2Cc2ccccc2Cl)c(=O)[nH]1 | – | inactive: 2.64%
13 | Cc1ccc(C)c(NC(=S)NCc2cccs2)c1 | – | inactive: 4.84%
14 | Cc1cccc(C(=O)Nc2sc(-c3ccccc3)cc2C(=O)O)c1 | active: 14.1 µM | –
15 | Cc1ccc(CNC(=O)C2CCN(S(=O)(=O)c3c(C)noc3/C=C/c3ccco3)CC2)cc1 | – | inactive: -12.5%
16 | O=C(NCCCN1CCN(c2ccccc2F)CC1)c1cc2c(s1)-c1ccccc1OC2 | inconclusive: 28.2 µM [inhibitor, partial curve, poor fit] | –
17 | Cc1ccc(N2CCN(c3ccc(C)cc3)C2c2ccccn2)cc1 | inconclusive: 22.4 µM [inhibitor, partial curve] | –
18 | CC1CCc2c(sc(NC(=O)COc3ccccc3C(C)(C)C)c2C#N)C1 (stereo not given) | inconclusive: 25.1 µM [inhibitor, single point] | –
19 | CN(C)/C=C/C(=O)c1ccc(Cl)cc1 | inconclusive: 28.2 µM [inhibitor, partial curve] | –
20 | COc1ccc(C2CC(=O)c3ccccc3O2)cc1 (stereo not given) | inconclusive: 12.6 µM [inhibitor, partial curve] | –
